Where “and” joins values, the source holds several entries; their conditions need not be identical. Equal values may be shown once. Hit rate of the full screen: of about 110,000 compounds, about 230 (0.21%) showed an effect of 50% or more. Some of the results follow.
Biological target: DPAP1 (Plasmodium falciparum, UniProt Q8IIJ9)
Experiment: primary screen, percent inhibition; read by cleavage of a fluorogenic dipeptide substrate; higher = more effect of the substance
Parameters: species or system P. falciparum D10 trophozoite lysates; single well
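Also: 30 min substrate incubation versus DMSO and 10 µM JCP410 controls.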

Chain of DPAP1 (Q8IIJ9 whole entry, looked up): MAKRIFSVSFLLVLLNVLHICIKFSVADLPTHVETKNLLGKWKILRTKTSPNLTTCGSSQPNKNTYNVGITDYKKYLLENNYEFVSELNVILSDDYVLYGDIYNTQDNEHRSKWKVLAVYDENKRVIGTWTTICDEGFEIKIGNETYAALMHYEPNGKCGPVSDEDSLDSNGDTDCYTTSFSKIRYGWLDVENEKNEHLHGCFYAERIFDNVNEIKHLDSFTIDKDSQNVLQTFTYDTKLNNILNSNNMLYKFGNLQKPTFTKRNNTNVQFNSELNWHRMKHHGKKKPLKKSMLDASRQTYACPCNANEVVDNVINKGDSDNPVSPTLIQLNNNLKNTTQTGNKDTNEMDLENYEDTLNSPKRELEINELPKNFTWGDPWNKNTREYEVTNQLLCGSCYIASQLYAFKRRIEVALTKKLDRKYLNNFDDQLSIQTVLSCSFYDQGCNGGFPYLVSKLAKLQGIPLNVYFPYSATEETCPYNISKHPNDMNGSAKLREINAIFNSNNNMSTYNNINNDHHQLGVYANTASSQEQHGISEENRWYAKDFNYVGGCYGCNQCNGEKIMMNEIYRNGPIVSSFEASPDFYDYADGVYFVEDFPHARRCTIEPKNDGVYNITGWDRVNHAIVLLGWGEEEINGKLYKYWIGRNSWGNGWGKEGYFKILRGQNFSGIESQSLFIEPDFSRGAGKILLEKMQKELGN

SMILES | % Inhibition @ 10 uM
CC(C)Oc1ccc2ccccc2c1/C=C1\SC(=O)N(CC(=O)N2CCCCC2)C1=O | -0.25%
O=C(N/C(=C\C=C/c1ccccc1)C(=O)N1CCOCC1)c1ccc(Br)o1 | 0.674%
COc1ccccc1/C=C(\NC(=O)c1ccccc1)C(=O)N1CCCCCC1 | -1.26%
CC1CCCC(C)N1C(=O)c1ccc(Br)cc1 (centres unmarked) | -7.5%
CCOC(=O)c1[nH]c2ccccc2c1NC(=O)Cc1cccc(C)c1 | 0.813%
CC(CCN1C[C@@H]2C[C@H](C1)c1cccc(=O)n1C2)c1ccccc1 (some centres unmarked) | -1.85%
Cc1ccc(NC(=O)c2cccnc2)cc1C | -4.4%
COc1ccc(-n2c(CN3CCOCC3)nc3ccccc3c2=O)c(OC)c1 | -1.51%
Cc1noc(C)c1CCNC(=O)c1nn(C)c2c1CS(=O)(=O)c1ccccc1-2 | -0.495%
CC1CCc2nn(CC(=O)NCc3ccc(F)cc3)cc2C1 (centres unmarked) | -3.35%
O=C(Nc1ccc(-c2ccc([N+](=O)[O-])cc2)cc1)c1ccc(Cl)cc1 | 4.6%
CC(=O)c1cccc(NC(=O)/C=C/c2ccc(Cl)cc2)c1 | 4.6%
O=C(N/C(=C/c1ccco1)C(=O)N1CCOCC1)c1ccsc1 | -0.366%
Cc1ccc(-c2cn3c(n2)sc2cc(C(=O)NCCN(C)C)ccc23)cc1 | 11.6%
CC(C)CCNC(=O)CCc1nnc2n(CCc3ccccc3)c(=O)c3ccccc3n12 | -2.42%
Oc1cc(-c2ccccc2)nc2nc(COc3ccccc3)nn12 | 2.62%
CCOC(=O)c1c(C)oc2nc(C)nc(NCc3ccc(CN4CCCCC4CC)o3)c12 (centres unmarked) | -1.61%
CS(=O)(=O)C1=NN2C(=N)/C(=C\c3ccc(Br)o3)C(=O)N=C2S1 | -3.58%
N#Cc1nc(COc2ccc(Cl)cc2)oc1NCc1ccc(F)cc1 | 0.343%
COc1cccc2c(Cl)c(C/C=C(/C)Cl)c(C)nc12 | -4.03%
Cc1cc2c(C(F)(F)F)cc(=O)oc2c2c1NCCC2 | -2.91%
COc1ccc(/C=C/C(=O)N2CCC(CN3C(=O)c4cccc5cccc(c45)C3=O)CC2)cc1OC | -3.98%
COc1ccc2[nH]c(O)c(N=NS(=O)(=O)c3ccc(C)cc3)c2c1 | -1.93%
O=C(NCCC1=CCCCC1)c1cnn2c(C(F)(F)F)cc(-c3ccccc3)nc12 | 4.36%
N#Cc1c(-c2ccc(F)cc2)cc(C2CC2)nc1S | 4.63%

SMILES | % Inhibition @ 10 uM
Cc1ccc(C2=C/C(=C/c3ccc(Cl)cc3)C(=O)O2)cc1 | 1.84%
Cc1ccc(NC(=O)COc2ccccc2C)nc1 | -2.29%
CCCN(Cc1ccccc1)C(=O)c1ccc(N2C(=O)CCC2=O)cc1 | -7.75%
COc1ccc(OC)c(N2C(=O)CC(N3CCc4ccccc4C3)C2=O)c1 (centres unmarked) | -1.95%
COc1ccc2cc3cc(C(=O)NCC4CCCO4)oc3nc2c1 (centres unmarked) | 1.9%
Cc1nn(C)c(C)c1CN(C)S(=O)(=O)c1cccc2cccnc12 | -0.312%
COc1ccc(C2C3=C(CC(C)(C)CC3=O)N(CCN3CCOCC3)C3=C2C(=O)CC(C)(C)C3)cc1 | 6.64%
Cc1ccc(-n2nc(C)c(/C=N/c3ccc(S(=O)(=O)NCc4ccccc4)cc3)c2O)cc1 | -1.08%
N#Cc1c(-c2ccc3c(c2)OCO3)cc(-c2ccccc2)nc1S | 11.7%
CC(=O)OC(C)(C)C#CCN1CCCCC1 | -0.268%
CCCOc1cccc(OCC(=O)Nc2nc3ccccc3[nH]2)c1 | 2.02%
Cc1cccn2c(=O)c(/C=N/CCO)c(NCc3ccccc3)nc12 | 3.06%
N=c1cc2[nH]c3ccccc3sc-2cc1=O | 49.8%
COc1ccc(N2C(=O)CC(N3CCC(C(N)=O)CC3)C2=O)cc1F (centres unmarked) | -5.34%
Cc1ccc(OCC(=O)Nc2ccccc2OC(F)F)cc1C | -1.61%
O=C(NCCCN1CCC(Cc2ccccc2)CC1)C1CCN(S(=O)(=O)N2CCCC2)CC1 | 0.514%
Cc1ccc(-c2cn3nc(N4CCC(C(=O)N(C)Cc5ccccc5)CC4)sc3n2)cc1 | 4.36%
COc1ccc(C(=O)Nc2sc(C)c(-c3ccccc3)c2C#N)cc1OC | 3.96%
O=c1/c(=C/c2ccccc2)sc2nc(-c3cccs3)nn12 | -5.2%
COc1cccc(CN2CCN(C3CCCC(C)C3)CC2)c1OC (centres unmarked) | 4.31%
Fc1cccc(Cl)c1CN1CCOCC1 | 4.28%
Oc1nnc(-c2ccccc2)c2ccccc12 | -0.999%
CC(C)COc1ccc(/C=C2/NC(=O)N(Cc3ccc(F)cc3)C2=O)cc1 | 3.54%
Cc1ccc(C(=O)CSc2nnc(-c3cccnc3)n2N)cc1 | -0.0626%
CCOCCCNC(=O)c1cc2sc(Cl)cc2n1CC | -4.85%

SMILES | % Inhibition @ 10 uM
O=C(O)C1C2C=CC(O2)C1C(=O)Nc1ccc2c(c1)OCCO2 (centres unmarked) | -1.98%
CCn1c(C(=O)NCCCc2ccccc2)cc2sccc21 | -6.68%
CCCCNC(=O)CCNC(=O)c1ccc(C(C)(C)C)cc1 | -1.99%
N#CCNC(=O)[C@H](Cc1ccc2ccccc2c1)NC(=O)c1csc(-c2ccccc2[N+](=O)[O-])n1 | 3.66%
COC(=O)c1ccc(C2Oc3c(OC)cccc3C3CC(c4cccs4)=NN32)cc1 (centres unmarked) | -1.11%
CCOc1ccc(-c2cc(C(=O)NC(C)CC)c3ccccc3n2)cc1 (centres unmarked) | -5.92%
CC(C)n1c(N2CCCCCC2)nc2c1c(=O)n(C)c(=O)n2C | -1.55%
O=C(c1cc(S(=O)(=O)N2CCCCC2)ccc1Cl)N1CCCCC1 | -5.11%
CC(NS(=O)(=O)c1ccc(CCC(=O)N2CCc3ccccc3C2)cc1)c1ccccc1 (centres unmarked) | 2.4%
CC(C)OCCCNC(=O)c1ccc(CSc2nc3cccnc3n2Cc2ccc(F)cc2)cc1 | 3.46%
O=C(Nc1nc2c(Cl)cccc2s1)c1ccccc1F | 3.53%
Cc1ccc(/C=C/c2nc(N)nc(-c3ccccc3O)n2)o1 | 2.31%
Cc1ccc(-c2c(N3CCCCC3)c(=O)c2=O)cc1 | 1.97%
Cc1nc2c(-c3ccccc3)c(C)nn2c(C)c1CCC(=O)NCCCOC(C)C | 1.26%
CC1CCN(C(=O)CSc2nc(O)c3cnn(-c4ccc(F)cc4)c3n2)CC1 | -3.78%
CCOC(=O)N1CCN(C(=O)C2CC(c3ccc(OC)cc3)=NO2)CC1 (centres unmarked) | -3.45%
CC(C)NC(=O)CN1C(=O)C(=O)c2ccccc21 | 1.81%
N#CCNC(=O)[C@H](CCc1cc(Cl)ccc1Cl)NC(=O)OCc1ccccc1 | -1.5%
COc1cccc(C(=O)NC(c2ccco2)c2cc(Cl)c3cccnc3c2O)c1 (centres unmarked) | -1.48%
CN(C)S(=O)(=O)c1ccc(N)c([N+](=O)[O-])c1 | -6.22%
CC(C)N1C(=O)/C(=C/Nc2ccc(S(N)(=O)=O)cc2)C(=O)N(CCc2ccccc2)C1=O | 1.4%
CCOC(=O)c1cc2c(=O)n3ccccc3nc2n(C(C)C)/c1=N\C(=O)c1ccc(C(C)(C)C)cc1 | 2.06%
COc1ccc(CC(=O)N2CCc3ccccc32)cc1 | 2.46%
O=C(Cn1ncc2c1-c1ccccc1OC2)N1CCN(Cc2ccc3c(c2)OCO3)CC1 | 1.72%
O=C(Nc1ccc(-c2nc3cc(Cl)ccc3o2)cc1)c1cccs1 | -1.98%

SMILES | % Inhibition @ 10 uM
CCN1C(=O)S/C(=C\c2ccc(N3CCOCC3)o2)C1=O | -4.02%
CCOc1ccccc1N1CCN(C(=O)C(C)Oc2cccc(Cl)c2)CC1 (centres unmarked) | 1.27%
NC(=O)c1cc2n(n1)C(C(F)(F)F)CC(c1ccc(Cl)c(Cl)c1)N2 (centres unmarked) | 2.38%
CC1=CN2C(=N)/C(=C/c3coc4ccccc4c3=O)C(=O)N=C2S1 | -3.95%
COCCCNS(=O)(=O)c1ccc2[nH]c3c(c2c1)CCCCC3 | -3%
COc1ccc(N2C(=O)CCc3c(-c4ccccc4)cc(N(C)C)cc32)cc1 | 1.63%
COCc1c(Br)c(C)nc2sc3c(=O)n(Cc4ccccc4)nnc3c12 | 4.13%
COc1cc2c(cc1C=O)OCO2 | 1.63%
CN1C(=O)NC(c2ccc(Br)cc2)C2=C1CCCC2=O (centres unmarked) | 4.83%
CCNc1cc(N(C)C)nc(Oc2ccc(OCCOc3ccccc3C)nn2)n1 | 0.778%
COc1cc(C2C(C#N)=C(n3cccc3)OC3=C2C(=O)CCC3)cc(OC)c1OC (centres unmarked) | 5.93%
Cn1ncc2c(NCCC3=CCCCC3)ncnc21 | 3.2%
CCNC(=O)CSc1nc2ccsc2c(=O)n1Cc1ccccc1Cl | 5.46%
CC/C(=N\CCCn1ccnc1)c1c(C(F)(F)F)nn(-c2nc3ccccc3s2)c1O | 4.55%
CN1CCN(C(=O)c2cc3nc(-c4ccccc4)cc(-c4ccccc4)n3n2)CC1 | 4.57%
COc1ccccc1NC(=O)CN(Cc1ccc(Cl)cc1)S(=O)(=O)c1ccccc1 | 2.79%
CS(=O)(=O)C1=NN2C(=N)/C(=C\c3ccc(OCc4ccc5c(c4)OCO5)cc3)C(=O)N=C2S1 | 0.208%
Cc1oc2c(C)c3oc(=O)c(CC(=O)O)c(C)c3cc2c1-c1ccccc1 | -4.75%
O=c1oc2ccccc2cc1C1=Nn2c(nnc2-c2ccc3c(c2)OCO3)SC1 | 13.3%
Cc1csc(NC(=O)CCc2c(C)nc3c4cccnc4nn3c2C)n1 | 1.62%
CCCCNC(=O)c1nc2ncc([N+](=O)[O-])cn2n1 | -0.636%
CSc1cccc(NC(=O)CN(C2CCCCC2)S(=O)(=O)c2ccc(F)cc2)c1 | -0.68%
O=C(Nc1ccc(S(=O)(=O)Nc2ncccn2)cc1)c1cccc(COc2ccccc2Cl)c1 | 4.01% and -2.74%

From paper PMC6919601, “Identification of Plasmodium dipeptidyl aminopeptidase allosteric inhibitors by high throughput screening” (PLoS ONE, 2019)
